Laboratory results: PubChem BioAssay AID686978 (National Center for Advancing Translational Sciences (NCATS), 2013)
Where “and” joins values, the source holds several entries; their conditions need not be identical. Equal values may be shown once. Hit rate of the full screen: of about 420,000 compounds, about 64,000 (15%) were called active. The inconclusive results got no clear call from the source; some entries with a clear call stand among them for comparison. The call rests on the fitted dose curve; in most records, active means well fitted inhibition curve with a large enough effect; inconclusive means small, poorly fitted or top-dose-only effect; inactive means flat fitted curve, though single readings scatter. Potencies of inconclusive entries are left out as doubtful fits.
On the % scale 0 is the no-effect control and ±100 the full control effect; potency means the concentration at half of the fitted maximal effect; tags describe the fitted curve by direction and shape.

Test: qHTS for Inhibitors of human tyrosyl-DNA phosphodiesterase 1 (TDP1): qHTS in cells in absence of CPT; further: nearly all actives have a fitted effect of over 55% in size
Details: DT40 Tdp1-/- hTDP1 cells, no CPT, ATP luminescence, 48 h; activity change, negative = growth inhibition: at 46.2 µM (top of the series) unless noted
In short: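 Stably hTDP1-transfected Tdp1-null chicken DT40 cells were treated with library compounds minus camptothecin and grown for at least 48 hr at 37 °C, after which cellular ATP was quantified by luminescence.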
With CC(C)CCOP(=O)(c1ccc(N(C)C)cc1)C(O)c1ccccc1 (configuration not stated) the Potency was inconclusive [inhibitor, single point].
With CC1([N+](=O)[O-])COP(=O)(NC2CCCC2)OC1 (configuration not stated) the Potency was “inactive”.
With CCOC(=O)CNC(=O)CNC(=O)C(Cc1ccc(N(CCCl)CCCl)cc1)NC(C)=O (configuration not stated) the Potency was active: 1.64 µM.
With O=C(c1ccoc1)N1CCCC(N2CCN(c3cccc(C(F)(F)F)c3)CC2)C1 (configuration not stated) the Potency was inconclusive [inhibitor, single point].
In the case of N#Cc1ccc(Cn2cc(C(=O)c3ccco3)c3ccccc32)cc1, the Potency is reported as active: 23.1 µM.
In the case of CC(C)C[C@H](NC(=O)[C@H](Cc1ccccc1)NC(=O)CNC(=O)[C@@H](NC(=O)[C@@H](N)Cc1ccc(O)cc1)[C@H](C)O)C(=O)N[C@H](C(=O)O)[C@H](C)O, the activity change, negative = growth inhibition is reported as inactive: -6.34% [at 4.12 µM].
For CCCCn1c(=O)c(C(=O)Nc2ccccc2)c(O)c2ccccc21, the Potency was active: 4.11 µM.
With COC(=O)C1=C(c2cccc(OCc3ccccc3)c2)C[C@@H]2CC[C@H]1N2C(=O)NCc1cc(C)oc1C(F)(F)F the Potency was inconclusive [inhibitor, single point].
In the case of CC[C@@H](O)C[C@H]1CCC[C@@]2(C[C@@H]3OC(=O)/C=C/[C@@](C)(O)[C@@H](O)[C@H](C)[C@@H](O)[C@H](OC4CCC(N(C)C)C(C)O4)[C@@H](O)[C@](C)(O)CCCCC/C=C/[C@@H]4CC(C)(C)O[C@@]4(O)C[C@H](O2)[C@H]3C)O1 (some centres not stated), the Potency is reported as active: 0.146 µM.
In the case of COC(=O)C1=C(c2ccc(C(C)=O)cc2)C[C@@H]2CC[C@H]1N2C(=O)NCc1ccc(F)cc1, the Potency is reported as inconclusive [inhibitor, single point].
For CC1=CC(=O)C2=C(C)C[C@H](O)[C@@H]3[C@H](OC(=O)[C@H]3C)[C@@H]12, the Potency was “inactive”.
In the case of CN(C)c1ccc(CN2CCc3nc(N4CCN(c5ccccn5)CC4)ncc3C2)cc1, the Potency is reported as active: 20.6 µM.
For CC(C)N1C(=O)NC(=O)C2(Cc3cc([N+](=O)[O-])ccc3N(C)C2c2ccccc2)C1=O (configuration not stated), the Potency was inconclusive [inhibitor, single point].
With COc1ccc(C(=O)CN2CCOCC2)cc1 the Potency was “inactive”.
In the case of O=C1NS(=O)c2cc([N+](=O)[O-])cc([N+](=O)[O-])c21 (configuration not stated), the Potency is reported as inconclusive [inhibitor, partial curve, poor fit].
For Cc1oc(-c2ccccc2Cl)nc1CN1C(=O)CN=C(c2ccccc2)c2ccccc21, the Potency was active: 20.6 µM.
With CC[C@]1(C(=O)OC)[C@H]2C(=O)N(Cc3ccccc3)C(=O)[C@H]2[C@H]2CN=C(SCc3ccc(C(=O)OC)cc3)N21 the Potency was inconclusive [inhibitor, single point].
With Cc1cc(C=C2C(=O)N(C)C(=S)N(C)C2=O)c(C)n1C1CCCC1 the Potency was inconclusive [inhibitor, single point].
With COC(=O)C1=C(c2ccc(Cl)c(C(F)(F)F)c2)C[C@@H]2CC[C@H]1N2C(=O)NCCOc1ccccc1 the Potency was active: 16.4 µM.
In the case of Nc1cccc(N=Cc2c(O)n(Cc3ccc(F)cc3)c(=O)[nH]c2=O)c1, the activity change, negative = growth inhibition is reported as inconclusive: -36.3% [inhibitor].
In the case of CCC1(c2cccc(O)c2)CCCCN(C)C1 (configuration not stated), the Potency is reported as “inactive”.
With CN1C(=O)NC(=O)C(N=Nc2ccc(Cl)cc2)C1=O (configuration not stated) the Potency was inconclusive [inhibitor, single point].
In the case of C=C1C(=O)O[C@H]2C[C@@H](C)[C@@H]3C=CC(=O)[C@@]3(C)C[C@H]12, the Potency is reported as active: 0.651 µM.
In the case of COC(=O)C1=C(c2cc3ccccc3s2)C[C@@H]2CC[C@H]1N2C(=O)NCc1cccc2ccccc12, the Potency is reported as inconclusive [inhibitor, single point].
With Cc1cccc(-n2c(/C=C/c3ccc([N+](=O)[O-])o3)nc3ccccc3c2=O)c1 the Potency was active: 4.61 µM.
In the case of COCCOC(=O)c1c(N)n(Cc2ccc(OC)cc2)c2nc3ccccc3nc12, the Potency is reported as active: 20.6 µM.
For CCOc1ccc2nc(N=Nc3c(O)[nH]c(=S)[nH]c3=O)sc2c1, the Potency was inconclusive [inhibitor, single point].
For COc1ccccc1CNCc1cc(OC)c(OC)cc1OC, the Potency was inconclusive [inhibitor, single point].
With Cc1cccc(C)c1-n1nnnc1C(c1cccc2ccccc12)N1CCC2(CC1)C(=O)NCN2c1ccccc1 (configuration not stated) the Potency was active: 11.6 µM.
With CCOC(=O)[C@]12Cc3ccc4ccccc4c3[C@H]1N(Cc1ccccc1)C(=O)c1ccccc12 the Potency was inconclusive [inhibitor, single point].
In the case of C1=C(c2ccccc2)CCNC1, the Potency is reported as “inactive”.
For CC(C)[C@]1(O)[C@@H](OC(=O)c2ccc[nH]2)[C@@]2(O)[C@@]3(C)C[C@]4(O)O[C@@]5([C@H](O)[C@@H](C)CC[C@]35O)[C@@]2(O)C41C, the Potency was inconclusive [inhibitor, partial curve, poor fit].
For Cc1ccc(N2C(=O)NC(=O)/C(=C\c3ccoc3)C2=O)cc1, the Potency was inconclusive [inhibitor, single point].
In the case of O=c1[nH]c2ccccc2n1C1CCN(Cc2ccc(-c3nc4ccccc4nc3-c3ccccc3)cc2)CC1, the Potency is reported as active: 14.6 µM.
For O=C1C2CCN(CC2)C1Cc1ccccc1O (configuration not stated), the Potency was “inactive”.
For CCC1CN2CCc3cc(OC)c(OC)cc3C2CC1CC1NCCc2c1[nH]c1ccc(O)cc21 (configuration not stated), the Potency was active: 0.082 µM.
In the case of NC(=NCCc1ccc(I)cc1)SCCCc1cnc[nH]1, the Potency is reported as active: 23.7 µM and active: 13 µM.
In the case of CN(c1ccccc1N(C)S(=O)(=O)c1ccccc1)S(=O)(=O)c1ccccc1, the Potency is reported as inconclusive [inhibitor, single point].
In the case of O=P(C(Cl)Cl)(N1CCOCC1)N1CCOCC1, the Potency is reported as “inactive”.
In the case of COC(=O)C1=C(c2cccc(OCc3ccccc3)c2)C[C@@H]2CC[C@H]1N2C(=O)NCc1ccccc1OC, the Potency is reported as active: 23.1 µM.
With CCOP(=O)(C#CC(C)(C)C)C(C)(O)c1ccccc1 (configuration not stated) the Potency was “inactive”.
In the case of COC(=O)C1=C(c2ccc(F)cc2OCc2ccccc2)C[C@@H]2CC[C@H]1N2C(=O)NCc1ccc(F)cc1, the Potency is reported as inconclusive [inhibitor, single point].
